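Briefly, cells in 96-well plates were exposed to five compound concentrations for 48 h, and endpoints were estimated by linear interpolation. GI50 = concentration required for 50% inhibition of growth.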 The source made the active and inactive calls. No stated cut-off is given here; in the data, active = GI50 up to about 1.1 µM and inactive = higher.

This assay relates to NCI-H322M. The assay can be described thus: NCI tumour cell line growth inhibition, 48 h.
As to `Cc1cc2c(cc1C)NC1=C(O)C(c3c[nH]c4ccc(COc5ccccc5)cc34)OC1=N2` (configuration not stated), the GI50 is inactive: > 100 µM.
Then `O=C1C(=C(I)I)c2ccccc2-c2ccccc21`, with inactive: 12.3 µM; and `COc1ccc(C(c2ccc(C(C)C)cc(=O)c2O)c2c(O)cc3oc(-c4ccccc4)cc(=O)c3c2O)cc1` (configuration not stated), with inactive: 18.4 µM; and `CCOC(=O)C1=C(N2CCCC2)NC(=O)CC1=O`, with inactive: > 100 µM.
`O=C1CCN2C(=Nc3cccc4cccc2c34)N1`: the GI50 is inactive: > 100 µM.
Regarding `Oc1ccc(C(=C(Br)c2ccccc2)c2ccc(O)cc2)cc1`, the GI50 is inactive: 7.73 µM.
Then `COc1cc(OC)cc(-n2c(N)c(C#N)c3ccc([N+](=O)[O-])cc3c2=O)c1`, with inactive: 27.1 µM; and `COC(=O)c1sc(C(=O)OC)c2c1C[S+]([O-])C2`, with inactive: > 100 µM; and `COC(=O)N1N=C(c2ccccc2)C1c1ccccc1` (configuration not stated), with inactive: > 100 µM.
As for `CCCCCC(=O)OC[n+]1ccc(-c2c(COC(=O)NC(C)C)c(COC(=O)NC(C)C)c3n2CCC3)cc1`, the GI50 is inactive: > 100 µM.
Take `C=CCSc1nnc2cc(CN3CCCC3)c(-c3ccc(Cl)cc3)nn12`: the GI50 is inactive: 15.3 µM.
With `Cc1cccc(C)c1NC(=O)C(=O)C(C#N)c1ccccc1` (configuration not stated) the figure was inactive: > 100 µM.
With `Cc1cc(-n2c(/C=C/c3ccc(Cl)cc3)nc3cc(Cl)ccc3c2=O)on1`, the GI50 was inactive: 10.8 µM.
With `Brc1nc2c3ccccc3ncn2c1Br` the figure was inactive: 54.8 µM; with `CC1=CC(O)(c2ccccc2)C(N2CCOCC2)N1O` (configuration not stated), inactive: > 100 µM.
With `C[C@@H](O)CCC(=O)c1ccoc1` the figure was inactive: > 75.7 µM.
Then `CC(C)c1cccc(C(C)C)c1NC(=O)C(=O)C(C(=O)c1ccc2ccccc2c1)C1OC(=O)c2ccccc21` (configuration not stated), with inactive: > 100 µM; and `C[C@H](CCC1=NCCN1)[C@H]1CC[C@H]2[C@@H]3CC[C@@H]4C[C@H](O)CC[C@]4(C)[C@H]3C[C@H](O)[C@]12C`, with inactive: 15.2 µM; and `Cc1ccc2c(c1C)CC1(Cc3ccc(C)c(C)c3C1=O)C2=O` (configuration not stated), with inactive: 19.5 µM.
With `O=C1CCCCCCCCCCC(=O)C2CCOCCOCCOCCC1Cc1cccc(n1)C2`, the GI50 was inactive: > 100 µM.
With `NC(=O)C(=O)n1ncc(Cl)c(Cl)c1=O` the figure was inactive: 40.6 µM; with `CC(=O)O[C@H]1C(=O)[C@@]2(C)[C@H]([C@H](OC(=O)C3CCCCC3)[C@]3(O)C[C@H](OC(=O)[C@H](O)[C@@H](NC(=O)OC(C)(C)C)c4ccccc4)C(C)=C1C3(C)C)[C@]1(OC(C)=O)CO[C@@H]1C[C@@H]2O`, active: 0.0151 µM; with `S=C(N/N=C\C=N/NC(=S)N1CCCCCC1)N1CCCCCC1`, inactive: > 70 µM.
With `CC(C(=O)NCNC(=O)c1ccccc1)C(=O)Nc1ccccc1` (configuration not stated) the figure was inactive: > 100 µM.
Take `C=CC[C@H](C)CCC(=O)N1[C@H]2CC3CC[C@@]2(CS1(=O)=O)C3(C)C`: the GI50 is inactive: > 100 µM.
With `COc1ccc(NC(=S)Nc2c(C)n(C)n(-c3ccccc3)c2=O)cc1` the figure was inactive: > 100 µM; with `COC(=O)c1ccc(/C=C/C2=CC(=O)C=CC2=O)cc1`, inactive: 44.2 µM.
As to `N#CC(C#N)=C(N)/C(C#N)=C\c1ccnc2ccccc12`, the GI50 was inactive: 71 µM.
Regarding `COC(=O)c1cc(C)n(NC(=O)OC(C)(C)C)c1C`, the GI50 is inactive: > 100 µM.
Then `CN(C)Cc1cc(/N=N/c2cccc(Cl)c2)ccc1O`, with inactive: 12.9 µM; and `[N-]=[N+]=Nc1c(Br)c(=O)[nH]c(=O)n1COCCO`, with inactive: > 100 µM.
Then `O=C1Nc2ccccc2/C1=C\c1c(Cl)n(-c2ccccc2)c2ccccc12`, with inactive: 3.81 µM.

The values above are taken from ChEMBL document CHEMBL1201862, “PubChem BioAssay data set” (2004).
